PubChem BioAssay (NCI)
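Where inhibition never reached the appropriate level, the endpoint shown equals the highest concentration tested. Otherwise, values were interpolated linearly from a five-concentration, 48-hour dose response in 96-well plates. Here, GI50 denotes the concentration required for 50% inhibition of growth. TGI: concentration producing complete growth inhibition.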 Square brackets hold non-standard residues; d marks the D form. Peptide text beside a SMILES is read from it. * marks the point of attachment. Tyr(3-Br) = N[C@@H](Cc1ccc(O)c(Br)c1)C(=O)O; Boc = CC(C)(C)OC(=O)*

System: NCI-H322M lung
Assay: growth of human tumour cells (NCI), 48 h

COc1cc(/C=C2/SC(c3ccccc3)N(c3ccccc3)C2=O)cc(OC)c1OC (configuration not stated) and COc1cc(C=C2C(C)=NN(c3cccc(Cl)c3)C23C(Cl)C(=O)N3c2nc3ccccc3s2)ccc1O (configuration not stated) cannot be ordered by TGI: greater than 100 µM for the first, greater than 100 µM for the second.

First: Cc1cc(N=Nc2c(O)ccc3ccccc23)ccc1N=Nc1cccc([N+](C)(C)C)c1
Second: O=C(O)c1cc2ccccc2c(N=Nc2cc(C(F)(F)F)ccc2Cl)c1O
The TGI of the first is lower: 75.7 µM for the first, greater than 100 µM for the second.

CC(=O)O[C@@H]1[C@@H](O)C2=C3[C@]4(C)[C@@H]1C(C)(C)C(=O)C[C@@H]4[C@]3(O)[C@H](OC(C)=O)[C@@]1(C[C@@H]1C)C2=O and C=C1C(=O)OC2/C=C(/C)C3CC(O)C(C)(CC(OC(=O)/C(C)=C/C)C12)O3 (configuration not stated) are within 1.5-fold of each other in TGI: 32.6 µM for the first, 26 µM for the second.

CC(=O)C1C(=O)NC(=O)C1=O (configuration not stated) and Cc1ccc(S(=O)(=O)N2C[C@](O)(c3ccccc3)[C@H]2C)cc1 cannot be ordered by TGI: greater than 100 µM for the first, greater than 100 µM for the second.

Compared with CN(C)Cc1cc(C(C)(C)C)ccc1-c1ccc(C(C)(C)C)cc1CN(C)C, CN(C)CCSc1cccc(-c2cc(-c3cccc(SCCN(C)C)c3)nc(SCCN(C)C)n2)c1 is lower in TGI: greater than 100 µM for the first, 4.28 µM for the second.

First: C=C1C(=O)C[C@@]23CCC[C@@]12CC(OCOC)C3 (some centres not stated)
Second: CN(C)c1ncc(-c2ccc(C(F)(F)F)cc2)c(NC2CCCCCC2)n1
The TGI of the first is lower: 26.1 µM for the first, greater than 100 µM for the second.

CN1CCN(c2ccc(Nc3nc(N)c(C(=O)c4ccc5c(c4)OCCO5)s3)cc2)CC1 and Cc1cc(-c2nc3ccccc3s2)ccc1N cannot be ordered by TGI: greater than 17.1 µM for the first, greater than 100 µM for the second.

Compared with CN(CCc1ccccn1)c1nc(=[N+](C)C)ss1, COc1ccc(N/N=C(\CCN(C)C)c2ccccc2)cc1 is lower in TGI: greater than 100 µM for the first, 34.9 µM for the second.

Compared with O=C(O)CCC/C=C\C[C@H]1C=CC(=O)/C1=C/C[C@@H](O)CCc1cccc(C(F)(F)F)c1, O=C(O)Cc1ccc(Oc2nc3ccccc3nc2C(=O)O)cc1 is higher in TGI: 18.8 µM for the first, greater than 100 µM for the second.

Compared with C=C1c2[nH]c3ccccc3c2C2C(CC)C1CCN2C (configuration not stated), C[C@@H]1Cc2c([nH]c3ccccc23)[C@@H](c2c(F)cc(NC3CN(CCCF)C3)cc2F)N1CC(F)(F)CO is lower in TGI: greater than 100 µM for the first, 22.4 µM for the second.

Cc1c2c(n(CCc3ccccc3)c1C)N(C)N=C(C#N)S2(=O)=O and COc1cc(C)cc2c1c(=O)c1ccccc1n2C cannot be ordered by TGI: greater than 100 µM for the first, greater than 100 µM for the second.

COC(=O)[C@H](Cc1ccc(O)c(Br)c1)NC(=O)[C@H](Cc1ccc(O)cc1)NC(=O)OC(C)(C)C (Boc-Tyr-[Tyr(3-Br)]-OMe) and Cc1ccccc1C(=O)Oc1ccc(O)cc1 cannot be ordered by TGI: greater than 100 µM for the first, greater than 100 µM for the second.

CN(C)/N=C(/c1nc2ccc([N+](=O)[O-])cc2[nH]c1=O)C(O)c1ccco1 (configuration not stated) and CN(/N=C/c1cccc2cccnc12)c1ccc([N+](=O)[O-])cc1 cannot be ordered by TGI: greater than 100 µM for the first, greater than 100 µM for the second.

Cc1nc(C(N)=S)sc1C(/C=C/c1ccc(Cl)c(Cl)c1)=N/NC(C)(C)C and O=C(Cc1nc2ccccc2s1)C(=O)Nc1cccc(Cl)c1 cannot be ordered by TGI: greater than 100 µM for the first, greater than 100 µM for the second.

Compared with COC(C(=O)C(O)C(C)O)C1CC2C=C3C=C(OC4CC(OC5CC(O)C(OC)C(C)O5)C(OC(C)=O)C(C)O4)C(C)C(=O)C3=C(O)C2=C(O)C1OC1CC(OC2CC(OC3CC(C)(O)C(OC(=O)C(C)C)C(C)O3)C(O)C(C)O2)C(O)C(C)O1 (configuration not stated), COc1cc(C(=O)O[C@@H]2[C@@H](OC(=O)c3cc(OC)c(OC)c(OC)c3)[C@@H](OC)O[C@@H]3CO[C@@H](c4ccccc4)O[C@@H]23)cc(OC)c1OC is higher in TGI: less than 0.01 µM for the first, greater than 100 µM for the second.

First: COc1cc2c3c(n(CCCNCCCNCCCNCCCN)c(=O)c2cc1OC)-c1cc2c(cc1C3=O)OCO2
Second: CCN(CC)CCCC(C)Nc1nc(C)cc(Nc2ccc3nc(C)cc(N)c3c2)n1 (configuration not stated)
The TGI of the first is 14-fold lower: 6.79 µM for the first, 92.8 µM for the second.

Going from Cc1cc(S(=O)(=O)/N=C(\[N-]S(=O)(=O)c2ccc(Cl)cc2)[n+]2ccc(N(C)C)cc2)c(S)cc1Cl to O=C1C=CC2=[N+]([O-])C(c3ccccc3)(c3ccccc3)C(=Nc3ccccc3)C2=C1, the TGI falls from greater than 100 µM to 19.8 µM.

O=C(NNC(c1ccccc1)C(F)(F)F)c1ccncc1 (configuration not stated) and O=C1O[C@H]2[C@H](O)[C@@H](OC(=O)c3cc(O)c(O)c4c3[C@@H]3C1=CC(=O)C(O)(O)C3(O)O4)[C@H](OC(=O)c1cc(O)c(O)c(O)c1)O[C@@H]2CO (some centres not stated) cannot be ordered by TGI: greater than 100 µM for the first, greater than 100 µM for the second.

Compared with CN1CCN(c2ccc(Nc3nc(N)c(C(=O)c4ccc5c(c4)OCCO5)s3)cc2)CC1, C[C@@H]1Cc2c([nH]c3ccccc23)[C@@H](c2c(F)cc(NC3CN(CCCF)C3)cc2F)N1CC(F)(F)CO is 2.8-fold higher in GI50: 3.7 µM for the first, 10.3 µM for the second.

Going from O=C(O)CCC/C=C\C[C@H]1C=CC(=O)/C1=C/C[C@@H](O)CCc1cccc(C(F)(F)F)c1 to CN(C)c1ncc(-c2ccc(C(F)(F)F)cc2)c(NC2CCCCCC2)n1, the GI50 rises from 5.71 µM to 32.8 µM (5.7-fold).

Compared with COc1cc2c3c(n(CCCNCCCNCCCNCCCN)c(=O)c2cc1OC)-c1cc2c(cc1C3=O)OCO2, CCN(CC)CCCC(C)Nc1nc(C)cc(Nc2ccc3nc(C)cc(N)c3c2)n1 (configuration not stated) is 6-fold higher in GI50: 2.73 µM for the first, 16.5 µM for the second.
